No constants are given. Whether binding was seen depends on the method and setting. Binding seen in cells or lysates may run through a third protein. Some results given as binding are weak or reduced against the parent protein; the word gives no strength. For some assays here: Tags and fused reporters may be left off the sequences shown. Values belong to the molecule of their own block, whether it stands above or below them.
Columns and labels:
[1] = molecular target: T1, Flag-S100A11 (1-41) (mouse) (UniProt P50543); experiment: co-IP; lysates of N2a cells transfected with Flag-S100A11 or GFP-ANXA1 constructs, partner endogenous; anti-Flag, anti-GFP or anti-ANXA1 antibody overnight at 4 °C, Protein A/G plus agarose, western blot
T1 sequence: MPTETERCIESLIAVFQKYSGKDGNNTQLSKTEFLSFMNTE

Protein sequences, listed by entry. Tags and fused reporters are not part of them.
UniProt Q9R0A0: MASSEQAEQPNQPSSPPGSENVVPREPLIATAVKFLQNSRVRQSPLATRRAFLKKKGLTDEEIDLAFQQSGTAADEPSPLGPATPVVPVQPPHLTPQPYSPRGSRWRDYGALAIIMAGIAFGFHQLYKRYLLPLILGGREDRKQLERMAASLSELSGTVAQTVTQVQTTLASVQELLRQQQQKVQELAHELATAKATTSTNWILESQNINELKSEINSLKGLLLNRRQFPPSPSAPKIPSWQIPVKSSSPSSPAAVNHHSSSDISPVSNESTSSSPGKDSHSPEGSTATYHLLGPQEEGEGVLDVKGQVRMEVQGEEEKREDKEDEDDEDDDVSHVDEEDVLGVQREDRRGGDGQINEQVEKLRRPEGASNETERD
UniProt P70168: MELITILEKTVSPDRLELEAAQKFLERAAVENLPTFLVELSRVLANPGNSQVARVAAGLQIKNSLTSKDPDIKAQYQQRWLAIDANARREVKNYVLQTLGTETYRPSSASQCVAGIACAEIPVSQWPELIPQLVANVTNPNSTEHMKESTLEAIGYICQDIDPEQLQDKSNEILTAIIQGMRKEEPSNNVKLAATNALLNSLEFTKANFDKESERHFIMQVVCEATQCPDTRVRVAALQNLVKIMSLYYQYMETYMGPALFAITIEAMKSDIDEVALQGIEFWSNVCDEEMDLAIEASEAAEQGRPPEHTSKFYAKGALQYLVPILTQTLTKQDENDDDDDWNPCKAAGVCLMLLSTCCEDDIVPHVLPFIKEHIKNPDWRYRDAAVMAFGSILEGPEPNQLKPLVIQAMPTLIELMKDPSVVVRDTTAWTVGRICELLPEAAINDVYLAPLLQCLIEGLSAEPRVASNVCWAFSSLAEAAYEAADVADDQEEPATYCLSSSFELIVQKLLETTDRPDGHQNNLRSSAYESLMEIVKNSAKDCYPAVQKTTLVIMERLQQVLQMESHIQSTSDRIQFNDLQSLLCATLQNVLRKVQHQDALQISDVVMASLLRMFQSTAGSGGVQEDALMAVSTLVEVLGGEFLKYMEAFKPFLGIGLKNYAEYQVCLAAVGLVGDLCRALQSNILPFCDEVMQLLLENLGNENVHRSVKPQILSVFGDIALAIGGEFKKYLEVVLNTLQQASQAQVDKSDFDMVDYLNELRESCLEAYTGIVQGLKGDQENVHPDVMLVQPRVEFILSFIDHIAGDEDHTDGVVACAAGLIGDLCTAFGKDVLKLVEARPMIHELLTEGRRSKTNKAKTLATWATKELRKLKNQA

[2] = molecular target: T2, Flag-S100A11 (42–98) (mouse) (UniProt P50543); experiment: as above
T2 sequence: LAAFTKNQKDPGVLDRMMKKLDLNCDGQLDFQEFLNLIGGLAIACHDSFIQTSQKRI

[3] = molecular target: T3, Flag-S100A11 (WT) (mouse) (UniProt P50543); experiment: as above
T3 sequence: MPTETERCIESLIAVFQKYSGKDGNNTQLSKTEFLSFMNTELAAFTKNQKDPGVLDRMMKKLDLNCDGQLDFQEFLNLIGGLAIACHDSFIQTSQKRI

[4] = molecular target: Peroxisome biogenesis protein 14 (mouse (endogenous in N2a)) (UniProt Q9R0A0); experiment: co-IP; endogenous proteins in N2a cell lysates, with or without OGD/R (OGD 1 h, reoxygenation 24 h); lysate diluted fourfold in IP buffer, antibody overnight at 4 °C, Protein A/G plus agarose 4 h, five washes, western blot
[5] = molecular target: T4, annexin A1 (mouse (endogenous in N2a)) (UniProt P10107); experiment: as above
T4 sequence: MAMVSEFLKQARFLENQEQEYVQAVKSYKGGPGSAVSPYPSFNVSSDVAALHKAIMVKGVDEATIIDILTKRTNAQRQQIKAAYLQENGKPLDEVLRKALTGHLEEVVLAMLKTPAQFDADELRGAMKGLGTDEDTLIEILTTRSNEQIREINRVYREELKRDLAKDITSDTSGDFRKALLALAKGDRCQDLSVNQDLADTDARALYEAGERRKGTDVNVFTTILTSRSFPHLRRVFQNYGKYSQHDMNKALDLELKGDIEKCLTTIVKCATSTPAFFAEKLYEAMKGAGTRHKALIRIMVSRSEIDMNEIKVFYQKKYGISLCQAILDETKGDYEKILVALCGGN

[6] = molecular target: T4, annexin A1 (mouse (endogenous in N2a)); experiment: co-IP; lysates of N2a cells transfected with Flag-S100A11 or GFP-ANXA1 constructs, partner endogenous; anti-Flag, anti-GFP or anti-ANXA1 antibody overnight at 4 °C, Protein A/G plus agarose, western blot

binding [1]: no binding | binding [2]: no binding | binding [3]: no binding
Molecule: importin β (from UniProt P70168 1-876)

binding [4]: binds | binding [5]: binds
B1: S100A11 (protein, UniProt P50543 1-98)
chain: T3 sequence

binding [6]: binds
B2: Flag-S100A11 (WT) (protein, UniProt P50543 1-98)
chain: T3 sequence

binding [6]: no binding
Molecule: MPTETERCIESLIAVFQKYSGKDGNNTQLSKTEFLSFMNTE (domain or fragment, UniProt P50543 1-41) [Flag-S100A11 (1-41)]

binding [6]: binds
B3: Flag-S100A11 (42–98) (domain or fragment, UniProt P50543 42-98)
chain: T2 sequence

Reference: publication PMC5974363
